From PubChem BioAssay AID686970 (National Center for Advancing Translational Sciences (NCATS), 2013)
Screen size: about 360,000 compounds; about 6,000 (1.7%) were called active. Inconclusive means that the source gave no clear call. Such entries were picked first, then a sample of the others. Calls follow the shape of the dose curve; as a rule, active = well fitted cell-killing curve with a large enough effect; inconclusive = small, poorly fitted or top-dose-only effect, or effect the other way; inactive = flat fitted curve, though single readings scatter. Potencies of inconclusive entries are left out as doubtful fits.

Assay: qHTS for induction of synthetic lethality in tumor cells producing 2HG: qHTS for the HT-1080-NT fibrosarcoma cell line;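 also: NT is the 2HG producing partner of a matched IDH1 knockdown line; nearly all actives have a fitted effect of over 55% in size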;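 as to activity, negative = less viability: 0% = DMSO-treated cells and -100% = media-only wells without cells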
Conditions: HT-1080-NT fibrosarcoma viability, CellTiter-Glo ATP luminescence, 48 h; activity, negative = less viability: at 46.1 µM (top of the series) unless noted
Outline: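 750 cells/well, RPMI + 5% FBS; 2 h settle, compound pin-transfer, 48 h at 37 degrees C. CellTiter-Glo 10 min RT, luminescence. Normalized to DMSO and media-only wells.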
Potency is read from the fitted curve at half-maximal effect; tags tell the direction and shape of the fitted curve.

Row | SMILES | activity, negative = less viability | Potency
1 | c1ccc(-c2nnc(-c3ccccn3)nc2NC2CCCCC2)cc1 | inconclusive: -31.4% [cytotoxic] | –
2 | COc1ccccc1NC(=O)C1=C(C)NC(=O)NC1c1cccs1 (stereo not given) | – | inactive
3 | COc1ccc(C(=O)Nc2nc3cc(OC)c(OC)cc3c(=O)[nH]2)cc1 | – | inconclusive [cytotoxic, single point]
4 | Cc1cc(Cl)n2ncc(-c3ccccc3)c2n1 | – | active: 18.4 µM
5 | Cc1cccc(N2CCN(S(=O)(=O)c3cccs3)CC2)c1C | – | inactive
6 | COc1cc(CNc2cc(C)ccc2C)cc(OC)c1OC | – | inconclusive [cytotoxic, single point]
7 | C=C1C(=O)O[C@H]2C1CC[C@@](C)(O)C13C=CC(C)(C21)C1(C3)C(=O)O[C@@H]2C3C(C)=CCC3[C@](C)(O)C[C@H](OC(C)=O)C21 (stereo not given in full) | – | inconclusive [cytotoxic, single point]
8 | CCC(c1nnnn1C1CCCC1)N(Cc1cccs1)Cc1cc2cccc(C)c2[nH]c1=O (stereo not given) | – | inconclusive [cytotoxic, single point]
9 | CC(=S)/C=C1\Sc2ccccc2N1C | – | inconclusive [cytotoxic, single point]
10 | COc1cccc(N2CCN(c3ncnc4c3[nH]c3ccc(F)cc34)CC2C)c1 (stereo not given) | – | active: 6.51 µM
11 | COc1cc(/C=C2\CC(C(C)(C)C)C/C(=C\c3cc(OC)c(OC)c(OC)c3)C2=O)cc(OC)c1OC (stereo not given) | – | active: 11.6 µM
12 | COc1ccc(/C=N\NC(=O)COc2ccccc2Cl)cc1Cn1nc(C)cc1C | – | inconclusive [cytotoxic, single point]
13 | O=C(OCC(=O)c1ccc(Cl)s1)c1cnccn1 | – | inactive
14 | COc1ccc(OC)c(-c2csc(NC(=O)Cc3ccc(OC)c(OC)c3)n2)c1 | – | inconclusive [cytotoxic, partial curve, poor fit]
15 | Cc1ccnc(NC(c2cccnc2)c2ccc3cccnc3c2O)c1 (stereo not given) | – | inconclusive [cytotoxic, single point]
16 | N#Cc1c(NC(=O)c2ccc(Cn3cc(Br)cn3)o2)sc2c1CCCCC2 | – | inactive
17 | O=C(Nc1nc(-c2cc(Cl)sc2Cl)cs1)c1cccs1 | – | inconclusive [cytotoxic, partial curve]
18 | COc1cc2c(cc1OC)CN(C(=O)c1ccc(S(=O)(=O)N3CCCCC3)cc1)CC2 | – | inactive
19 | O=C(NCC1CCCO1)c1sc2cc(Cl)ccc2c1Cl (stereo not given) | – | inconclusive [rising, partial curve, poor fit]
20 | Cc1ccc(OCc2cc(C(=O)NC3CCCCC3)no2)cn1 | – | inconclusive [cytotoxic, single point]
